The antibiotic and cytotoxicity screens of Wong et al. (2023)
Some of the results follow.

Legend:
HSkMC = human skeletal muscle cells; test: cytotoxicity call (relative viability < 0.9); settings: 10 µM
HepG2 = test: cytotoxicity call (relative viability < 0.9); settings: 10 µM
S. aureus RN4220 = test: growth inhibition call (relative growth <= 0.2); settings: 50 µM

Structure (SMILES)	cytotoxicity call (HSkMC)	cytotoxicity call (HepG2)	growth inhibition call (S. aureus RN4220)
OC[C@H]1O[C@@H](O[C@@H]2[C@@H](O)[C@H](O)[C@H](O[C@@H]3[C@@H](O)[C@H](O)[C@H](O)O[C@@H]3CO)O[C@@H]2CO)[C@@H](O)[C@@H](O)[C@@H]1O	inactive	inactive	inactive
C[C@@H]1CN([C@H](C)CO)C(=O)c2cc(NC(=O)NC3CCCCC3)ccc2O[C@@H](C)CCCCO[C@H]1CN(C)C(=O)Nc1ccccc1	inactive	inactive	inactive
COC(=O)c1ccc(O)cc1	inactive	inactive	inactive
CN(C)Cc1cn(CC[C@@H]2CC[C@H](NC(=O)Cc3cccnc3)[C@@H](CO)O2)nn1	inactive	inactive	inactive
CO[C@H](CN(C)C(=O)c1ccc2c(c1)OCO2)[C@@H](C)CN([C@H](C)CO)S(=O)(=O)c1ccc(F)cc1	inactive	inactive	inactive
NCCC[C@H](NC(=O)[C@@H]1CCCN1C(=O)[C@@H]1CSSC[C@H](N)C(=O)N[C@@H](Cc2ccc(O)cc2)C(=O)N[C@@H](Cc2ccccc2)C(=O)N[C@@H](CCC(N)=O)C(=O)N[C@@H](CC(N)=O)C(=O)N1)C(=O)NCC(N)=O	inactive	active	inactive
C[C@@H]1CN([C@@H](C)CO)S(=O)(=O)c2ccc(C#C[C@@H](C)O)cc2O[C@H]1CN(C)C(=O)Cc1ccccn1	inactive	inactive	inactive
C[C@@H]1CN([C@H](C)CO)C(=O)c2cc(NC(=O)Cc3ccccc3)ccc2O[C@@H]1CN(C)Cc1ccc(C(=O)Nc2ccccc2N)cc1	inactive	inactive	inactive
C[C@@H]1CN([C@H](C)CO)C(=O)c2ccccc2-c2ccccc2CO[C@@H]1CN(C)C(=O)Nc1ccc(F)cc1	inactive	inactive	inactive
C[C@H]1CN([C@@H](C)CO)C(=O)c2cc(NS(=O)(=O)c3cn(C)cn3)ccc2O[C@H]1CN(C)S(=O)(=O)c1cn(C)cn1	inactive	inactive	inactive
O=C1C(O)=C(O)C(=O)C(O)=C1O	inactive	active	inactive
C[C@H](CO)N1C[C@H](C)[C@@H](CN(C)CC2CCCCC2)OCCCC[C@H](C)Oc2ccc(NC(=O)C3CCCCC3)cc2C1=O	inactive	inactive	inactive
CC(C)C[C@H](NC(=O)CNC(=O)c1cc(Cl)ccc1Cl)B1OC(=O)C[C@](CC(=O)O)(C(=O)O)O1	active	active	inactive
C[C@@H]1CN([C@@H](C)CO)C(=O)c2cccc(NS(=O)(=O)c3cn(C)cn3)c2O[C@@H]1CN(C)Cc1ccncc1	inactive	inactive	inactive
Cc1noc(C)c1NC(=O)Nc1ccc2c(c1)C(=O)N([C@H](C)CO)C[C@H](C)[C@@H](CN(C)Cc1ccccc1)OCCCC[C@@H](C)O2	inactive	inactive	inactive
C[C@@H]1CN([C@@H](C)CO)C(=O)c2cc(NC(=O)Nc3ccc(C(F)(F)F)cc3)ccc2O[C@@H]1CN(C)C(=O)Nc1ccc(C(F)(F)F)cc1	inactive	inactive	inactive
Cc1cn(C[C@H](N)C(=O)O)c(=O)n(Cc2ccsc2C(=O)O)c1=O	inactive	inactive	inactive
C[C@H](CO)N1C[C@H](C)[C@@H](CN(C)C(=O)c2cnccn2)Oc2cc(Br)ccc2S1(=O)=O	inactive	inactive	inactive
O=C(O)CCSC[C@@H]1O[C@H]2O[C@@H]3[C@@H](O)[C@H](O)[C@H](O[C@@H]4[C@@H](O)[C@H](O)[C@H](O[C@@H]5[C@@H](O)[C@H](O)[C@H](O[C@@H]6[C@@H](O)[C@H](O)[C@H](O[C@@H]7[C@@H](O)[C@H](O)[C@H](O[C@@H]8[C@@H](O)[C@H](O)[C@H](O[C@@H]9[C@@H](O)[C@H](O)[C@H](O[C@@H]1[C@@H](O)[C@@H]2O)O[C@H]9CSCCC(=O)O)O[C@H]8CSCCC(=O)O)O[C@H]7CSCCC(=O)O)O[C@H]6CSCCC(=O)O)O[C@H]5CSCCC(=O)O)O[C@H]4CSCCC(=O)O)O[C@H]3CSCCC(=O)O	inactive	inactive	inactive
Cc1ccc(S(=O)(=O)Nc2ccc3c(c2)C(=O)N([C@@H](C)CO)C[C@H](C)[C@@H](CN(C)Cc2ccc(C(F)(F)F)cc2)OCCCC[C@H](C)O3)cc1	active	active	inactive
O=C(C[C@@H]1C=C[C@H](NC(=O)c2cccc(F)c2)[C@@H](CO)O1)NCCN1CCCC1	inactive	inactive	inactive
C[C@@H]1CN([C@H](C)CO)C(=O)c2cccc(NC(=O)C3CCCCC3)c2O[C@H]1CN(C)S(=O)(=O)c1cn(C)cn1	inactive	inactive	inactive
C[C@H](CO)N1C[C@H](C)[C@H](CN(C)Cc2ccc(-c3ccccc3)cc2)Oc2ccc(NC(=O)CCC(F)(F)F)cc2CC1=O	inactive	inactive	inactive
COc1ccc(NC(=O)Nc2ccc3c(c2)C(=O)N([C@@H](C)CO)C[C@@H](C)[C@@H](CN(C)C(=O)Nc2c(C)noc2C)OCCCC[C@@H](C)O3)cc1	inactive	inactive	inactive
COc1ccccc1C#Cc1ccc2c(c1)O[C@H](CN(C)Cc1ccncc1)[C@H](C)CN([C@H](C)CO)S2(=O)=O	inactive	active	inactive
Nc1ncnc2c1ncn2[C@H]1CCCO1	inactive	inactive	inactive

Structure (SMILES)	cytotoxicity call (HSkMC)	cytotoxicity call (HepG2)	growth inhibition call (S. aureus RN4220)
C[C@@H]1CN([C@@H](C)CO)C(=O)c2cccc(NC(=O)Nc3ccc(C(F)(F)F)cc3)c2O[C@@H]1CN(C)S(=O)(=O)c1ccc(Cl)cc1	inactive	inactive	inactive
Cc1noc(C)c1S(=O)(=O)Nc1ccc2c(c1)C(=O)N([C@H](C)CO)C[C@@H](C)[C@H](CN(C)Cc1ccccc1)O2	inactive	inactive	inactive
O=C(NCC[C@@H]1CC[C@@H](NS(=O)(=O)c2cccc(F)c2)[C@@H](CO)O1)C1CC1	inactive	inactive	inactive
Cc1nc(C2C(=N)N([C@H]3CS(=O)(=O)C[C@@H]3O)CC2=O)sc1C (stereo partly drawn)	inactive	inactive	inactive
C[C@@H]1CN([C@H](C)CO)S(=O)(=O)c2ccc(C#CC3(O)CCCC3)cc2O[C@@H]1CN(C)C(=O)c1ccncc1	inactive	inactive	inactive
C[C@@H]1CN([C@@H](C)CO)C(=O)c2cc(NC(=O)CCCCCC(=O)Nc3ccccc3N)ccc2O[C@@H]1CN(C)Cc1ccc(C(F)(F)F)cc1	inactive	inactive	inactive
CC1CCC2C(C)C(OC(=O)CCC(=O)O)OC3OC4(C)CCC1C32OO4 (stereo not drawn)	inactive	active	inactive
COc1ccc2c3c([nH]c2c1)[C@H](CO)N(C[C@]13CN(Cc2cc(on2)-c2ccccc2)C1)C(=O)Nc1ccc(cc1)F	active	inactive	inactive
O=C(NN1CCCCC1)c1nn(-c2ccc(Cl)cc2Cl)c(-c2ccc(C#Cc3ccc(C(F)(F)F)cc3)s2)c1CNS(=O)(=O)N1CCCC1	inactive	inactive	inactive
C[C@H](CO)N1C[C@H](C)[C@H](CN(C)Cc2ccc3c(c2)OCO3)Oc2ccc(NC(=O)Cn3cnnn3)cc2C1=O	inactive	inactive	inactive
C[C@@H]1CN([C@H](C)CO)C(=O)c2cc(NS(=O)(=O)c3cccs3)ccc2O[C@@H](C)CCCCO[C@@H]1CN(C)C(=O)C1CCCCC1	inactive	inactive	inactive
C[C@H](O)C#Cc1cnc2c(c1)C(=O)N([C@H](C)CO)C[C@@H](C)[C@@H](CN(C)C(=O)CN1CCOCC1)O2	inactive	inactive	inactive
CCc1cc(Nc2nccc(-c3c(-c4ccc(OC)c(C(=O)Nc5c(F)cccc5F)c4)nc4ccccn34)n2)c(OC)cc1N1CCC(N2CCN(S(C)(=O)=O)CC2)CC1	inactive	inactive	inactive
CCCCCC(C)N.O=S(=O)(O)O (stereo not drawn)	inactive	inactive	inactive
C[C@H](CO)N1C[C@H](C)[C@H](CN(C)Cc2ccc(Cl)c(Cl)c2)OCCCC[C@H](C)Oc2ccc(NC(=O)NC3CCCCC3)cc2C1=O	inactive	active	inactive
CCOC(=O)C1CCN(c2cn[nH]c(=O)n2)CC1	inactive	inactive	inactive
Cc1noc(C)c1S(=O)(=O)N(C)C[C@@H]1Oc2ccc(NC(=O)CCC(F)(F)F)cc2CC(=O)N([C@H](C)CO)C[C@@H]1C	inactive	inactive	inactive
O=C(CCCCCCC(=O)Nc1ccccc1O)N/N=C/[C@H](O)[C@@H](O)[C@H](O[C@@H]1O[C@H](CO)[C@H](O)[C@H](O)[C@H]1O)[C@H](O)CO	inactive	inactive	inactive
C[C@@H]1CN([C@@H](C)CO)C(=O)c2cc(NC(=O)NC3CCCCC3)ccc2O[C@@H]1CN(C)Cc1ccc(-c2ccccc2)cc1	active	active	inactive
O=C(O)Cn1nnc(-c2ccccc2)n1	inactive	inactive	inactive
C[C@H]1CN([C@@H](C)CO)S(=O)(=O)c2ccc(-c3ccc(C(=O)N(C)C)cc3)cc2O[C@@H]1CN(C)C(=O)C1CCC1	inactive	inactive	inactive
C[C@H](CO)N1C[C@H](C)[C@H](CN(C)C(=O)Nc2ccccc2)OCCCC[C@H](C)Oc2ccc(NS(=O)(=O)c3cccs3)cc2C1=O	inactive	inactive	inactive
COc1ccc(NC(=O)N(C)C[C@@H]2Oc3ccc(NS(=O)(=O)c4c(C)noc4C)cc3C(=O)N([C@H](C)CO)C[C@H]2C)cc1	inactive	inactive	inactive
C[C@@H]1CCCCO[C@H](CN(C)S(=O)(=O)c2ccc(F)cc2)[C@H](C)CN([C@@H](C)CO)C(=O)c2cc(NC(=O)Nc3cccc4ccccc34)ccc2O1	inactive	inactive	inactive
CCS(=O)(=O)N1CCOC[C@]2(CC[C@@H](Cn3cncn3)O2)C1	inactive	inactive	inactive
